# Laboratory results reported in the RNAGym collection of RNA variant scans (doi:10.1093/nar/gkz1192).
# Read counts are not given, so values of variants with three or more changes are uncertain.
# B1: CPEB3 Ribozyme (parent)
# chain: UAACAGGGGGCCACAGCAGAAGCGUUCACGUCGCAGCCCCUGUCAGAUUCUGGUGAAUCUGCGAAUUCUGCUGUAUAUCUC
# Variants of: B1
# Assay: self-cleavage, relative activity (ratio to wild type); higher = more cleavage; in vitro, sequencing
# Summary of the method: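 Libraries of CPEB3 self-cleaving ribozyme mutants came from rounds of error-prone PCR and carried barcodes, which DNA sequencing matched to variants. In vitro transcription used T7 RNA polymerase at 37°C for 5 hours, with a further 15 min in DNase I before EDTA stopped the reaction; the ribozymes cleaved during both steps. The RNA was reverse transcribed with template switching and sequenced on Illumina. Relative activity is the cleaved/total read fraction of a variant divided by that of the unmutated ribozyme, averaged over three batches with at least 5 reads.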
row,Variant,self-cleavage
1,UAACAGGGGGCCACUGCAGAAGCGCUCAGGUCGCAGCCCCUGUCGGAUUCUGGUGAAUCUGCGAAUUCUGCUGUAUAUCAC,0.29
2,UAACAGGGGGCCACUGCAGAAGCGUUCACAUCGCAGACCCUGACAGAUUCUGGUGAGUCUGCGAAAUCUGCUGUAUAUCUC,0.06
3,UAACAGGGGGCCACUGCAGAAGCGUUCACUUCGCAGCCCCCGCCAGAUUCUGGUGAAACUGCGAAUUCAGCGGUAUAUCUC,0.04
4,UAACAGGGGGCCACUGCAGAAGCGCCCGCGUCGCAGCCCCUGUCAGAUUCUGGUGAAUCUGCGCAUUCUGCUGUAUAUCUC,0.21
5,UAACAGGGGGCCACUGCAGAAGCGUACGCGUCGCAGCCCCUGUCGGAUUCUGGUGAAUCAGCGAACUAUGCUGUAUAUCUC,0.09
6,UAACAGGGGGCCACUGCAGAAGCGUACAAGUCGCAGCCCCUGUCAGAUUCUGGCGAAUCUGCGAAUUCUGCUGUAUAUCUC,0.07
7,UAACAGGGGGCCACUGCAGAAGCGUUCACUUCGCAGCCCCUGUCAGAUUCUGGUGAACCUGCGAAUUCUGCUGUAUAUCUC,0.07
8,UAACAGGGGGCCACUGCAGAAGCGAUCACGUCGCAGCCCCUGUCAGAUUCUGGUGAAUCUGCGAAUUCUGCAGUAUAUCUC,0.13
9,UAACAGGGGGCCACUGCAGAAGCGUUCACGUCGCAGCCCCUGUCAGAUUCUGCUGAGUCUGCGAGUUCUGCUGCAUAUCUC,0.39
10,UAACAGGGGGCCACUGCAGAAGCGUUCACGUCGCAGCCCCUGUCAGAUUCUGGUGAAUCUGCAAAUCCUGCAGUAUAUCUC,0.12
11,UAACAGGGGGCCACUGCAGAAGCGAUCACGUCGCAGCCCCUGUCAGAUUCUGGUGAAUCUGCGAAUUCUGCUGUAUAUCUA,0.1
12,UAACAGGGGGCCACUGCAGAAGCAUUCGCGUCGCAGCCCCCGUCAGAUUCUGGUGAAUCUGCGAAUUCUGCGGUAGAUCCC,0.04
13,UAACAGGGGGCCACUGCAGAAGCCUACACGUCUCAGCCCCUGUCAGAUUCUGGUGAAUCUGCGAAUUCUGCUGUUUAUCUC,0.03
14,UAACAGGGGGCCACUGCAGAAGCGCGCACGUCGCUGCCCCUGUCGGAUUCUGGUGAAUCUGCGAACUCUGCUUUAUAUCUC,0.07
15,UAACAGGGGGCCACUGCAAAAGCGUUCACGUCGCAGCCCCUGCCAGAUUCUGGUGAAUCUGCGAAUUCUGCUGUAUAUCUC,0.08
16,UAACAGGGGGCCACUGCAGAAGCGUUCACGUCGCACCCCUUGUCAGAUACUGGUGAAUCUGCGAAUUCUGCUGUAUAUCUC,0.28
17,UAACAGGGGGCCACUGCAGAAGCGUUCACGUCGCAGCCCCUGUCAGAUUCUUGUGAAUCUGCGAAUUCUGCUGUUUAUCCC,1.14

row,Variant,self-cleavage
1,UAACAGGGGGCCACUGCAGAAGCGUUCACGUCGCAGCCCCUGUCAGAUUCUGGUAAAUCUGCGAAUUCUGCUGUAUAACUC,0.32
2,UAACAGGGGGCCACUGCAGAAGCGUUCACGUCGCAGCCCCUGUCAGAUUCUGGUGAAUCUACGAAUUAUGCUGUAUAUCUC,0.18
3,UAACAGGGGGCCACUGCAGAAGCGUUCACGUCGCAGCCCCUAUCAGAUUCUGGAGAAUCCGCGCAUUCUGCUGUAUAUCUC,0.07
4,UAACAGGGGGCCACUGCAGAAGCGUUCACGUCGCAGCCCCUGUCAGAUUCUGGUGAAUCUGCCAACUCUGCUGUAUAACUC,0.11
5,UAACAGGGGGCCACUGCAGAAACGUACUCGUCGCAGCCUCUGUCAGAUUCUGGUGUAUCAGCGAAUUCUGCUGUAUAUCUC,0.04
6,UAACAGGGGGCCACUGCAGAAGCGUUCACGUCACAGCCCCUGUCAGAUUCUGGAGAAUCUGCGAAUUCUGCUGUGUAUCUC,0.15
7,UAACAGGGGGCCACUGCAGAAGCGCUCUCGACGCAGCCCCUGUCAGAUUCUGGUGAAUCUGCGAAUCCUGCUGUAUAUCUC,0.07
8,UAACAGGGGGCCACUGCAGAAGCGGUCUCGUCGCAGCCCCUGUCAGAUUCUGGUGAAUCUGCGAAUUCUGCUGUAUAUCUC,0.23
9,UAACAGGGGGCCACUGCAGAAGCGCUCACGUCGGGGCCCCUGUCAGAUUCUGGUGAAUCUGCGAAUUCUGCUGUAUAUCUC,0.21
10,UAACAGGGGGCCACUGCAGAAGCGCUCACGUCGCGGCUCCUGUCAGAUUCAGGUGAUUCUGCGAAUUCUGCUGUAUAUCUC,0.08
11,UAACAGGGGGCCACUGCAGAAGCGUUCACGUCGCAGCCCCUGUCAGAUUCUGGUGAAUCUGCAGAUUCUGCUGUAUAUCUC,0.08
12,UAACAGGGGGCCACUGCAGAAGCGUUCACGUCGCAGCCCCUUCCGGAUUCUGGUGAAUCUGCGAAUUCUGCCGUAUAUCUC,0.07
13,UAACAGGGGGCCACUGCAGAAGCGAUCACGUCGCAGCCCCUGUCAGAUUCCGGUGAAUCUGCGAAUUCUGCUGUAUAUCUC,0.14
14,UAACAGGGGGCCACUGCAGAAGCGUUCACUUCGCAGCCCCUGUCAGAUUCUGGUGAAUCUGCGAAUUCUGCUCUAUAUCUC,0.11
15,UAACAGGGGGCCACUGCAAAAGCGUUCACGUCGCAGCCCCUGUCAGAUUCUGGUGAAUCUGCGAAUUCUGCUGUAUAUCAC,0.07
16,UAACAGGGGGCCACUGCAGAAGCGUUCACAUCGCAGCCCCUGUCUGGUUCUGGUGAAUCAGCGAAUUCUGCUGUAUUUCUC,0.23
17,UAACAGGGGGCCACUGCAGAAGCGUUCACGUCGCAGCCCCUGUCAAAUUCGGGUGAAUCUGCGAAUUCUGCUGUAUACCUC,0.19
